In patent publication WO2023074749A1 (dated 2023):

T1: CD25 protein expressed on K562 cells (UniProt P01589 22-272, limits assumed)
T1 construct: whole, on cells; also called K562/CD25 cells; CD25-expressing K562 cells
T1 sequence (looked up): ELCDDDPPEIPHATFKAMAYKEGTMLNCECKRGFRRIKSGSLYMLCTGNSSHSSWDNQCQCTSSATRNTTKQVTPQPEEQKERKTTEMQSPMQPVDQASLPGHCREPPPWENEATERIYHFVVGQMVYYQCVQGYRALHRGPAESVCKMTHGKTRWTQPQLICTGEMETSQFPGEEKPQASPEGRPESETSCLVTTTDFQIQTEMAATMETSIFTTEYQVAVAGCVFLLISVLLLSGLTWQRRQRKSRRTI


Molecular target: T1, CD25 protein expressed on K562 cells
Test: biotinylated peptide on K562/CD25 cells (legend of Fig. 5)

binding result	Binder
binds	ERPYACPVESCDRRFTGGGVLTAHIRIHTGQKP (biotinylated (site not stated), the form used in BLI is not described) [peptide R1]
binds	ERPYACPVESCGGVFDYHIGLTRHIRIHTGQKP (biotinylated (site not stated), the form used in BLI is not described) [peptide R4]
binds	ERPYACPVESCGGVFDYKVQLTRHIRIHTGQKP (biotinylated (site not stated), the form used in BLI is not described) [peptide R5]
